# The supplement of paper PMC8728848
# The list shows a part of the results.
# B1: Als3-41 (Candida albicans) (protein)
# chain: KTITGVFNSFNSLTWSNAATYNYKGPGTPTWNAVLGWSLDGTSASPGDTFTLNMPCVFKFTTSQTSVDLTAHGVKYATCQFQAGEEFMTFSTLTCTVSNTLTPSIKALGTVTLPLAFNVGGTGSSVDLEDSKCFTAGTNTVTFNDGGKKISINVDFERSNVDPKGYLTDSRVIPSLNKVSTLFVAPQCANGYTSGTMGFANTYGDVQIDCSNIHVGITKGLNDWNYPVSSESFSYTKTCSSNGIFITYKNVPAGYRPFVDAYISATDVNSYTLSYANEYTCAGGYWQRAPFTLRWTGYRNSDAGSNGIVIVATTRTVTDSTTAVTTLPFDPNRDKTKTIEILKPIPTTTITTSYVGVTTSYLTKTAPIGETATVIVD
# How the values were obtained:
# Assay in all cases: glycan array binding signal (z-score within array); higher = stronger binding
# Conditions in all cases: glycan notation: IUPAC condensed, linker removed
# [1] = biological target: Neu5Ac(a2-3)Gal6S(b1-4)[Fuc(a1-3)]GlcNAc
# In short: (§1)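 Columns mapping to the same glycan were averaged after glycan names were converted to IUPAC-condensed notation. The data come from 3228 arrays in the Consortium for Functional Glycomics database, limited to those with an available protein sequence. Binding is reported as a within-array Z-score averaged across arrays of one protein sequence and across linkers.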
# Neu5Ac(a2-3)GalNAc = biological target: Neu5Ac(a2-3)GalNAc
# In short: as §1
# [2] = biological target: Neu5Ac(a2-3)GalNAc(b1-4)GlcNAc
# In short: as §1
# [3] = biological target: Neu5Ac(a2-3)[GalNAc(b1-4)]Gal(b1-4)Glc
# In short: as §1
# [4] = biological target: Neu5Ac(a2-3)[GalNAc(b1-4)]Gal(b1-4)GlcNAc
# In short: as §1
# [5] = biological target: Neu5Ac(a2-3)[GalNAc(b1-4)]Gal(b1-4)GlcNAc(b1-3)GalNAc
# In short: as §1
# [6] = biological target: Neu5Ac(a2-3)[Neu5Ac(a2-6)]GalNAc
# In short: as §1
# Neu5Ac(a2-6)Gal = biological target: Neu5Ac(a2-6)Gal
# In short: as §1
# [7] = biological target: Neu5Ac(a2-6)Gal(b1-3)GlcNAc(b1-3)[Gal(b1-4)GlcNAc(b1-6)]Gal(b1-4)Glc
# In short: as §1
# Neu5Ac(a2-6)Gal(b1-4)Glc = biological target: Neu5Ac(a2-6)Gal(b1-4)Glc
# In short: as §1
# [8] = biological target: Neu5Ac(a2-6)Gal(b1-4)GlcNAc
# In short: as §1
# [9] = biological target: Neu5Ac(a2-6)Gal(b1-4)GlcNAc(b1-2)Man
# In short: as §1
# [10] = biological target: Neu5Ac(a2-6)Gal(b1-4)GlcNAc(b1-2)Man(a1-3)Man(b1-4)GlcNAc(b1-4)GlcNAc
# In short: as §1
# [11] = biological target: Neu5Ac(a2-6)Gal(b1-4)GlcNAc(b1-2)Man(a1-3)[Gal(b1-4)GlcNAc(b1-2)Man(a1-6)]Man(b1-4)GlcNAc(b1-4)GlcNAc
# In short: as §1
# [12] = biological target: Neu5Ac(a2-6)Gal(b1-4)GlcNAc(b1-2)Man(a1-3)[GlcNAc(b1-2)Man(a1-6)]Man(b1-4)GlcNAc(b1-4)GlcNAc
# In short: as §1
# [13] = biological target: Neu5Ac(a2-6)Gal(b1-4)GlcNAc(b1-2)Man(a1-3)[GlcNAc(b1-4)][Neu5Ac(a2-6)Gal(b1-4)GlcNAc(b1-2)Man(a1-6)]Man(b1-4)GlcNAc(b1-4)GlcNAc
# In short: as §1
# [14] = biological target: Neu5Ac(a2-6)Gal(b1-4)GlcNAc(b1-2)Man(a1-3)[Man(a1-6)]Man(b1-4)GlcNAc(b1-4)GlcNAc
# In short: as §1
# [15] = biological target: Neu5Ac(a2-6)Gal(b1-4)GlcNAc(b1-2)Man(a1-3)[Neu5Ac(a2-3)Gal(b1-4)GlcNAc(b1-2)Man(a1-6)]Man(b1-4)GlcNAc(b1-4)GlcNAc
# In short: as §1
# [16] = biological target: Neu5Ac(a2-6)Gal(b1-4)GlcNAc(b1-2)Man(a1-3)[Neu5Ac(a2-6)Gal(b1-4)GlcNAc(b1-2)Man(a1-6)]Man(b1-4)GlcNAc(b1-4)GlcNAc
# In short: as §1
# [17] = biological target: Neu5Ac(a2-6)Gal(b1-4)GlcNAc(b1-2)Man(a1-3)[Neu5Ac(a2-6)Gal(b1-4)GlcNAc(b1-2)Man(a1-6)]Man(b1-4)GlcNAc(b1-4)[Fuc(a1-6)]GlcNAc
# In short: as §1
# [18] = biological target: Neu5Ac(a2-6)Gal(b1-4)GlcNAc(b1-2)Man(a1-6)Man(b1-4)GlcNAc(b1-4)GlcNAc
# In short: as §1
# [19] = biological target: Neu5Ac(a2-6)Gal(b1-4)GlcNAc(b1-2)Man(a1-6)[Gal(b1-4)GlcNAc(b1-2)Man(a1-3)]Man(b1-4)GlcNAc(b1-4)GlcNAc
# In short: as §1
# [20] = biological target: Neu5Ac(a2-6)Gal(b1-4)GlcNAc(b1-2)Man(a1-6)[GlcNAc(b1-2)Man(a1-3)]Man(b1-4)GlcNAc(b1-4)GlcNAc
# In short: as §1
# [21] = biological target: Neu5Ac(a2-6)Gal(b1-4)GlcNAc(b1-2)Man(a1-6)[Man(a1-3)]Man(b1-4)GlcNAc(b1-4)GlcNAc
# In short: as §1
# [22] = biological target: Neu5Ac(a2-6)Gal(b1-4)GlcNAc(b1-2)[Neu5Ac(a2-6)Gal(b1-4)GlcNAc(b1-4)]Man(a1-3)[GlcNAc(b1-4)][Neu5Ac(a2-6)Gal(b1-4)GlcNAc(b1-2)[Neu5Ac(a2-6)Gal(b1-4)GlcNAc(b1-6)]Man(a1-6)]Man(b1-4)GlcNAc(b1-4)GlcNAc
# In short: as §1
# [23] = biological target: Neu5Ac(a2-6)Gal(b1-4)GlcNAc(b1-2)[Neu5Ac(a2-6)Gal(b1-4)GlcNAc(b1-4)]Man(a1-3)[GlcNAc(b1-4)][Neu5Ac(a2-6)Gal(b1-4)GlcNAc(b1-4)Man(a1-6)]Man(b1-4)GlcNAc(b1-4)GlcNAc
# In short: as §1
# [24] = biological target: Neu5Ac(a2-6)Gal(b1-4)GlcNAc(b1-2)[Neu5Ac(a2-6)Gal(b1-4)GlcNAc(b1-6)]Man(a1-6)[Neu5Ac(a2-6)Gal(b1-4)GlcNAc(b1-2)Man(a1-3)][GlcNAc(b1-4)]Man(b1-4)GlcNAc(b1-4)GlcNAc
# In short: as §1
# [25] = biological target: Neu5Ac(a2-6)Gal(b1-4)GlcNAc(b1-3)Gal(b1-3)GlcNAc
# In short: as §1
# [26] = biological target: Neu5Ac(a2-6)Gal(b1-4)GlcNAc(b1-3)Gal(b1-4)GlcNAc
# In short: as §1
# [27] = biological target: Neu5Ac(a2-6)Gal(b1-4)GlcNAc(b1-3)Gal(b1-4)GlcNAc(b1-2)Man(a1-3)[Neu5Ac(a2-6)Gal(b1-4)GlcNAc(b1-3)Gal(b1-4)GlcNAc(b1-2)Man(a1-6)]GalNAc
# In short: as §1
# [28] = biological target: Neu5Ac(a2-6)Gal(b1-4)GlcNAc(b1-3)Gal(b1-4)GlcNAc(b1-3)Gal(b1-4)GlcNAc
# In short: as §1
# [29] = biological target: Neu5Ac(a2-6)Gal(b1-4)GlcNAc(b1-3)Gal(b1-4)GlcNAc(b1-3)Gal(b1-4)GlcNAc(b1-2)Man(a1-3)[Neu5Ac(a2-6)Gal(b1-4)GlcNAc(b1-3)Gal(b1-4)GlcNAc(b1-3)Gal(b1-4)GlcNAc(b1-2)Man(a1-6)]GalNAc
# In short: as §1
# [30] = biological target: Neu5Ac(a2-6)Gal(b1-4)GlcNAc(b1-3)Gal(b1-4)GlcNAc(b1-3)GalNAc
# In short: as §1
# [31] = biological target: Neu5Ac(a2-6)Gal(b1-4)GlcNAc(b1-3)Gal(b1-4)GlcNAc(b1-3)[Neu5Ac(a2-6)Gal(b1-4)GlcNAc(b1-3)Gal(b1-4)GlcNAc(b1-6)]GalNAc
# In short: as §1
# [32] = biological target: Neu5Ac(a2-6)Gal(b1-4)GlcNAc(b1-3)Gal(b1-4)GlcNAc(b1-6)[Gal(b1-3)]GalNAc
# In short: as §1
# [33] = biological target: Neu5Ac(a2-6)Gal(b1-4)GlcNAc(b1-3)Gal(b1-4)[Fuc(a1-3)]GlcNAc(b1-3)Gal(b1-4)[Fuc(a1-3)]GlcNAc
# In short: as §1
# [34] = biological target: Neu5Ac(a2-6)Gal(b1-4)GlcNAc(b1-3)GalNAc
# In short: as §1
binder,measurement,setting,value
B1,glycan array binding signal (z-score),[1],-0.331
same,glycan array binding signal (z-score),Neu5Ac(a2-3)GalNAc,-0.215
same,glycan array binding signal (z-score),[2],-0.224
same,glycan array binding signal (z-score),[3],-0.266
same,glycan array binding signal (z-score),[4],0.084
same,glycan array binding signal (z-score),[5],0.031
same,glycan array binding signal (z-score),[6],-0.318
same,glycan array binding signal (z-score),Neu5Ac(a2-6)Gal,-0.309
same,glycan array binding signal (z-score),[7],-0.389
same,glycan array binding signal (z-score),Neu5Ac(a2-6)Gal(b1-4)Glc,-0.219
same,glycan array binding signal (z-score),[8],-0.184
same,glycan array binding signal (z-score),[9],-0.129
same,glycan array binding signal (z-score),[10],-0.296
same,glycan array binding signal (z-score),[11],-0.201
same,glycan array binding signal (z-score),[12],-0.308
same,glycan array binding signal (z-score),[13],-0.323
same,glycan array binding signal (z-score),[14],-0.268
same,glycan array binding signal (z-score),[15],-0.13
same,glycan array binding signal (z-score),[16],-0.063
same,glycan array binding signal (z-score),[17],-0.322
same,glycan array binding signal (z-score),[18],-0.308
same,glycan array binding signal (z-score),[19],-0.305
same,glycan array binding signal (z-score),[20],-0.222
same,glycan array binding signal (z-score),[21],-0.365
same,glycan array binding signal (z-score),[22],-0.236
same,glycan array binding signal (z-score),[23],-0.219
same,glycan array binding signal (z-score),[24],-0.261
same,glycan array binding signal (z-score),[25],-0.274
same,glycan array binding signal (z-score),[26],-0.253
same,glycan array binding signal (z-score),[27],1.22
same,glycan array binding signal (z-score),[28],-0.239
same,glycan array binding signal (z-score),[29],1.53
same,glycan array binding signal (z-score),[30],0.145
same,glycan array binding signal (z-score),[31],0.35
same,glycan array binding signal (z-score),[32],-0.208
same,glycan array binding signal (z-score),[33],-0.164
same,glycan array binding signal (z-score),[34],0.421
